# From paper PMC6919601, “Identification of Plasmodium dipeptidyl aminopeptidase allosteric inhibitors by high throughput screening” (PLoS ONE, 2019)
# Among all 110,000 compounds or so, about 230 (0.21%) showed an effect of 50% or more. The list shows a part of the results.
# Molecular target: DPAP1 (Plasmodium falciparum, UniProt Q8IIJ9)
# Assay: primary screen, percent inhibition; read by cleavage of a fluorogenic dipeptide substrate; higher = more effect of the substance
# Design: species or system P. falciparum D10 trophozoite lysates; single well
# 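Also: 30 min substrate incubation versus DMSO and 10 µM JCP410 controls.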
# DPAP1, sequence (Q8IIJ9 whole entry, looked up): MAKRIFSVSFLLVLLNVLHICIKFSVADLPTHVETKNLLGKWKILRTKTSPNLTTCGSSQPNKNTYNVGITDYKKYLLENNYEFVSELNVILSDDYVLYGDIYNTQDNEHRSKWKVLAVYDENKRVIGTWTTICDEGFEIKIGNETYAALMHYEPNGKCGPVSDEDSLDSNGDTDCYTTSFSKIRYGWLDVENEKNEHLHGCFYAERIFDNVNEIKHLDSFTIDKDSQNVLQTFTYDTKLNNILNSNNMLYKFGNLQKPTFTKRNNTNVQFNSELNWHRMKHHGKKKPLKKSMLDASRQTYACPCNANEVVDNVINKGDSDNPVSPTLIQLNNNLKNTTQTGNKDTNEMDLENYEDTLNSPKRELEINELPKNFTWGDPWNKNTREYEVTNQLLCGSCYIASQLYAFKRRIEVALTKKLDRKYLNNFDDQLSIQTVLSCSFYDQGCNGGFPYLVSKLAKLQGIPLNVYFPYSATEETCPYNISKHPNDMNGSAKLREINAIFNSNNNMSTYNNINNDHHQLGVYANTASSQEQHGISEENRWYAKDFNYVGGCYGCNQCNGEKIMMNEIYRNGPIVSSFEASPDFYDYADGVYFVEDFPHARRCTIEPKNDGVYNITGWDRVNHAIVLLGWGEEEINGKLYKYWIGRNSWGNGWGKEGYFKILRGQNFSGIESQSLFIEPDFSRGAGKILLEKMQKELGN
row,SMILES,% Inhibition @ 10 uM [%]
1,CCn1ccnc1P(=O)(O)c1ccccc1,-1.29
2,CC(NC(=O)C1CCC(CNS(=O)(=O)c2ccc(Br)s2)CC1)c1ccccc1 (centres unmarked),-0.0508
3,CCC1(CC)OC(c2ccc3c(c2)OCO3)Nc2ccccc21 (centres unmarked),-5.49
4,CCOC(=O)c1ccc(NC(=O)c2c(C(=O)O)cccc2[N+](=O)[O-])cc1,-3.98
5,CC1=C(C(=O)Nc2ccccc2C)C(c2ccc(C(C)C)cc2)n2nc(CCCO)nc2N1 (centres unmarked),-3.04
6,CCOC(=O)c1c(NC(=O)c2cc3ccccc3o2)sc2c1CCC2,3.67
7,Cc1cccn2c(=O)c(/C=C(\C#N)C(=O)NCc3ccco3)c(Oc3ccc(Cl)cc3)nc12,2
8,CC(NC(=O)c1ccccc1C(=O)O)C12CC3CC(CC(C3)C1)C2 (centres unmarked),1.16
9,Cc1sc2nc3c4ccccc4c(NCCCO)nn3c(=O)c2c1C,15
10,COc1cc(OC)c(OC)cc1CNC(C)C1COc2ccccc2O1 (centres unmarked),5.3
11,COc1c(S)cnn(-c2cccc(Cl)c2)c1=O,6.72
12,CCC(C)(C)C(=O)Nc1ccc(C(C)=O)cc1,4.56
13,O=C(CNC(=S)N(Cc1ccccc1F)C1CCCCC1)NCCCN1CCOCC1,1.27
14,Cc1ccc(-c2nn(CCC(=O)N3CCCC3)c(=O)c3ccccc23)cc1,-4.84
15,Oc1cccc(-c2nc(-c3ccccc3)c(-c3ccccc3)[nH]2)c1,3.32
16,COc1ccccc1Nc1nc(N)c2ccccc2n1,-2.29
17,NS(=O)(=O)c1ccc(CCNC(=O)CSCc2ccc(F)cc2)cc1,3.79
18,CC(=O)N1CCN(Cc2cccc(Oc3ccc(Cl)cc3)c2)CC1,2.1
19,COC(=O)c1ccc(C2CC(=O)N3C(=C2C#N)SCC3(O)c2ccc(Cl)cc2)cc1 (centres unmarked),4.8
20,Cc1cc(O)c(C2=NCCSC(c3ccc(Cl)c(Cl)c3)C2)c(=O)o1 (centres unmarked),1.66
21,COc1ccc(CC(=O)ONC(=O)c2ccc(Cl)cc2)cc1OC,6.08
22,N#CC1=C(N)Oc2c(c(O)nc3ccccc23)C1c1cccc(C(F)(F)F)c1 (centres unmarked),1.26
23,CCO/C=N\c1cc(C)c(C#N)c2nc3ccccc3n12,-0.413
24,CCOC(=O)C1CCN(Cc2ccc(-c3ccccc3)cc2)CC1,-1.86
25,Cc1cc(OCC(=O)Nc2cccc(Cl)c2C)cc(C)c1Cl,-2.18
26,COC(=O)C1=C(C)NC(=O)CC1c1ccc(C(F)(F)F)cc1 (centres unmarked),3.61

row,SMILES,% Inhibition @ 10 uM [%]
1,Cc1ccccc1NC(=O)c1c(NC(=O)CCC(=O)O)sc2c1CCCC2,17.3
2,CCn1c(-c2ccccc2OC)c(Cl)nc(Cl)c1=O,-1.98
3,O=C(O)CC(NC(=O)CCc1ccccc1)c1ccc2c(c1)OCO2 (centres unmarked),-3.07
4,CCCOC1C=CC(Oc2nc(NCC)cc(N(C)C)n2)=NN1 (centres unmarked),-4.62
5,COc1ccc(NC(=O)CCCOc2ccc(Cl)cc2Cl)cc1,2.98
6,CC1CCN(C(=O)Cn2ncc3c4ccccc4n(C)c3c2=O)CC1,-1.92
7,COC(=O)Nc1ccccc1C(=O)Nc1cccc(C)c1,-2.76
8,O=C(Nc1cc(NC(=O)c2ccc(Br)o2)ccc1Cl)c1ccccc1,3.24
9,COc1ccc(OC)c(-c2noc(N3CCN(C4CCCCC4)CC3)n2)c1,4.91
10,Cc1c(C(=O)N2CCCCC2)sc(NC(=O)c2ccc(Cl)cc2)c1C#N,7.17
11,C#CC1(OC(=O)c2ccccc2)CC(C)N(C)CC1C (centres unmarked),-4.35
12,O=C(O)c1ccc2c(c1)C(=O)N(c1ccc(Oc3ccccc3)cc1)C2=O,3.25
13,CN1CCN(c2ccc(NC(=O)CCC(=O)O)cc2)CC1,-3.92
14,COc1ccc2c(Sc3ccccc3)c(C(=O)NCC3CCCO3)[nH]c2c1 (centres unmarked),0.0811
15,CC(C)c1c(O)nc2c(c1O)C(=O)CC(C)(C)C2,-0.25
16,CC1(C)CC2(C)CC3=C([C@H](CO)C(C)(C)C3)C(CO)(C1)C2 (some centres unmarked),-3.26
17,CCn1c(C)nc2cc(-c3ccccc3)ccc21,-4.96
18,O=S(=O)(NC1CCCCC1)c1cccc2nsnc12,1.7
19,COc1ccccc1/C=C/C1=NC(=C\c2cccnc2)/C(=O)O1,19.3
20,C#CCSc1nc2c(cc1C#N)CCCCC2,1
21,CC1CCC(C(=O)NC(Cc2ccccc2)C(=O)NCc2ccccn2)CC1 (centres unmarked),-13.6
22,CN1C(C(=O)N2CCN(C(=O)C(C)(C)C)CC2)=CC(c2ccc(F)cc2)=NS1(=O)=O,0.655
23,COc1cc(OC)cc(C(=O)Nc2ccc3c(c2)oc2ccccc23)c1,-4.91
24,Cc1[nH]nc2c1C(c1ccc(-c3ccc(Cl)cc3)o1)C(C#N)=C(N)O2 (centres unmarked),2.51
25,CC1=C(C(=O)Nc2nc3ccccc3s2)C(c2ccccc2)C2=C(O)CCCC2=N1 (centres unmarked),-0.661
26,CC1CC(=O)C2=C(C1)OC(N)=C(C#N)C2c1cccs1 (centres unmarked),1.96

row,SMILES,% Inhibition @ 10 uM [%]
1,CCSc1nc(N2CCOCC2)c2c(c1C#N)CC(C)(C)SC2,-0.968
2,CCCN1CCN(C(=O)c2cccc3c2C(=O)N(Cc2cccnc2)C3)CC1,-0.719
3,CC1CCCC(NCC(C)(C)CN(C)C)C1 (centres unmarked),-1.56
4,CC(C)(C)c1cc(C(=O)CSc2nncn2-c2ccccc2)cc(C(C)(C)C)c1O,3.7
5,CN1CCCC1CCNC1C2CC3CC(C2)CC1C3 (centres unmarked),-4.14
6,Cc1nn(-c2ccccc2)c2c1C1(C(=O)Nc3ccccc31)C(C#N)=C(N)O2 (centres unmarked),-3.77
7,COC(=O)c1ccc(C2NC(=O)c3[nH]nc(-c4ccc(C)cc4)c32)cc1 (centres unmarked),-9.43
8,CCOc1cc2c(cc1OCC)C(C(=O)O)C(c1cc(OC)c(OC)cc1OC)N(C)C2=O (centres unmarked),0.231
9,Cc1cccc(NC(=O)CCCCC(=O)Nc2cccc(C)c2)c1,3.92
10,CC(NC(=O)C(=O)NCCN(C)C)C(c1cccs1)N1CCOCC1 (centres unmarked),3.96
11,O=C1C(=O)N(CCN2CCCCC2)c2ccccc21,2.92
12,CCOc1ccc(CCNC(=O)C(CC)n2nc(C)c3c(C)n(-c4ccc(C)cc4)nc3c2=O)cc1 (centres unmarked),-2.49
13,O=C(O)c1cc(S(=O)(=O)N2CCCC2)ccc1Cl,-1.62
14,CC(CCc1ccccc1)N1CCCN(C)CC1 (centres unmarked),-3.6
15,CCOP(=O)(CCC(=O)OC)OCC,-4.01
16,O=c1c2ccccc2nc(-c2ccccc2)n1-c1ccncc1,1.67
17,CN1C2=C(C(=O)CCC2)C(c2cc(Br)ccc2OCC(=O)O)C2=C1CCCC2=O,3.49
18,O=C(Nc1ccc2c(c1)ncn2-c1ccccc1)c1ccco1,1.83
19,OC1CCN(Cc2ccc(F)cc2)CC1,3.16
20,COc1cc(C2C(C#N)=C(C)NC3=C2S(=O)(=O)c2ccccc23)cc(OC)c1OC (centres unmarked),3.05
21,COc1ccccc1-c1nn2c(-c3ccccc3Cl)nnc2s1,-1.69
22,C=CCc1cccc(C)c1OCCCN1CCC(C)CC1,-1.82
23,C(=C\c1ccccc1)/CN1CCN(Cc2ccnc3ccccc23)CC1,4.68
24,O=S(=O)(Nc1ccccn1)c1cccc(C(F)(F)F)c1,0.716
25,COc1cc(-c2ncnn2-c2sc3c(c2C#N)CCCC3)ccc1O,3.82
26,Cc1ccc(CS(=O)(=O)c2cn(CC(=O)NC(C)(C)C)c3ccccc23)cc1,4.68

row,SMILES,% Inhibition @ 10 uM [%]
1,Cc1cc(C(=O)NC2CCCCCC2)c2c(C)nn(-c3ccccc3)c2n1,-4.1
2,Cc1nnc(SCC(=O)NCCc2ccccc2Cl)c2nn(-c3ccccc3)c(C)c12,-1.23
3,CCN1C(=O)CC(C(=O)Nc2ccc(C(=O)O)cc2)S/C1=N\c1ccccc1 (centres unmarked),1.89
4,CN(C)C1CCCCC1NS(=O)(=O)c1ccccc1 (centres unmarked),5.81
5,Cc1ccccc1Cn1c(C)c(CNC2CCC(C)CC2)c(C(=O)O)c1C (centres unmarked),-5.49
6,COCCCN1C(=O)C(O)=C(C(=O)c2ccc(C)cc2)C1c1ccc(Cl)cc1Cl (centres unmarked),2.03
7,CCCN1CCC(N2CCC(Cc3ccccc3)CC2)CC1,2.94
8,CCc1nc2ccc(C(=O)NCc3ccccc3F)cc2nc1CC,-3.26
9,CCCCNC(=O)c1ccccc1NC(=O)c1ccc(C)cc1,-1.26
10,COc1cc(C2CC(c3c(O)cc(C)oc3=O)=NCCS2)ccc1O (centres unmarked),-0.0372
11,Cn1ncc(Br)c1C(=O)Nc1cccc2ccccc12,-2.58
12,O=C(c1ccc2c(c1)ncn2-c1ccc(OCc2ccccc2)cc1)N1CCC2(CC1)OCCO2,2.8
13,CCC1(C)CC(=O)c2c(ccc3oc(C(=O)NCCCN4CCOCC4)c(C)c23)O1 (centres unmarked),-0.447
14,CCN(CC)CCCCOc1cc(C)cc(C)c1C,-9.84
15,Cc1ccc(S(=O)(=O)N2CCCC(C(=O)NCCc3ccc(Cl)cc3)C2)cc1 (centres unmarked),-4.97
16,Cc1c(CNCc2ccccc2F)c(C(=O)O)c(C)n1Cc1ccccc1,4.79
17,COCCN1C(=O)c2ccccc2C(C(=O)NCCN(C)C)C1c1c[nH]c2ccccc12 (centres unmarked),1.86
18,CCSC1=NC2(CCN(C(=O)NCc3ccccc3)CC2)N=C1c1ccc(OC)cc1,1.67
19,Cc1ccccc1SCCC(NC(=O)c1ccccc1)C(=O)NCC#N (centres unmarked),-5.21
20,Cc1ccc(-c2cc(C(F)F)n3ncc(C(=O)NC(C)(C)C)c3n2)cc1,-11.5
21,CC1=CC(C)C2C(=O)N(c3cccnc3)C(=O)C2C1 (centres unmarked),-3.14
22,Cc1cccc(Cn2c(SC(C)C)nc3c2c(=O)[nH]c(=O)n3C)c1,-2.16
23,Cc1nn(CC(=O)O)c(C)c1NC(=O)c1cccs1,0.9
